# In the supplement of paper PMC3334620:
# Whole data set: some 33,000 sequences, median “E-score (-0.5 to 0.5)” near -0.056, cut for the highest 2% near 0.38. The list shows a part of the results.
# Molecular target: Stb4 (UniProt P50104)
# Experiment: PBM E-score (8-mer binding enrichment) (E-score (-0.5 to 0.5)); higher = stronger / more preferred TF binding; most listed sequences are background and not binding sites
# Conditions: protein concentration: 200 nM; construct: GST-DNA-binding domain
# How it was run: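 Using PURExpress in vitro transcription/translation, GST-tagged yeast transcription factors were made in full-length or DNA-binding-domain form. These were applied at about 100-200 nM to double-stranded universal all-10-mer Agilent arrays, and bound protein was detected with fluorescent anti-GST. Scans were normalised with masliner before the Universal PBM Analysis Suite assigned E-scores to ungapped eight-base words pooled with their reverse complements.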
row,Sequence,PBM E-score
1,CTTACTTA,-0.166
2,CACGTTAC,-0.205
3,ACAGGTCG,-0.065
4,AACCAACC,-0.0173
5,ATAGTTAC,-0.111
6,AATTGTGG,-0.229
7,GTCGTTCA,-0.0958
8,GATTTAAC,0.171
9,CTACGGCA,0.108
10,CCGGCCAA,0.271
11,CTGTGTTA,0.0856
12,GGTTTCTA,0.139
13,ATTATCCA,-0.0958
14,AATCTTTC,0.0363
15,GCACCCTA,-0.254
16,AATCCGTA,0.12
17,AATCACTG,0.00277
18,GTATGAAC,0.00829
19,ATACACTG,-0.154
20,GCTGGGAC,-0.117
21,ACACTCGG,0.354
22,GACATACC,0.0488
23,ATATACCC,0.202
24,CGCGAGCG,-0.016

row,Sequence,PBM E-score
1,ATGAGAAT,0.0223
2,AAGACACT,0.0624
3,AGGTCTGG,-0.236
4,CGCACGAG,-0.0922
5,CTATACAG,-0.204
6,AGTTCTTA,-0.0189
7,CGGTGCGC,0.103
8,CACTGCTC,-0.0624
9,CACGTCTA,-0.263
10,GGTTATAC,0.0761
11,AGATCGCA,-0.074
12,AACAGTCC,-0.33
13,GGCGGGCA,0.135
14,ACGGACCT,-0.0202
15,AGGAAGCG,0.011
16,CGAAGAGA,0.157
17,AGGCATCA,-0.201
18,CGCCGACC,0.221
19,CCGCACCC,0.212
20,ACGCCCAG,-0.319
21,TCAGATAA,-0.0704
22,AGAAAGCT,0.0286
23,GGGACTGA,-0.0999
24,CTGGATGA,-0.172

row,Sequence,PBM E-score
1,CCGCTAGA,-0.193
2,AGAAGGTG,-0.0949
3,GGGGTAAA,-0.0301
4,AGTAGGAG,-0.236
5,AATAACGT,-0.0631
6,ATAACAGG,-0.133
7,CGTTAACA,-0.0627
8,CGGGAGTC,0.261
9,AACACTTA,-0.188
10,GCGAAAAC,-0.154
11,CATGGATA,-0.0308
12,CGTGTCGC,0.0649
13,ACAGTCAG,-0.0929
14,ACAATTAA,0.124
15,CACCAACC,0.074
16,AGAAGCGA,-0.168
17,CAATCAGA,-0.15
18,CACACTGG,-0.18
19,GAGCTAGC,-0.0654
20,AAGATGAG,-0.31
21,GATAGTGA,-0.0698
22,CCAAGGGG,-0.12
23,CTCGCTAC,-0.127
24,GAGCCATA,-0.159

row,Sequence,PBM E-score
1,AAACCATA,-0.0199
2,AAGAGCAC,-0.153
3,CCACGCGA,-0.189
4,CAGAAGTA,-0.204
5,CTCGGCTC,0.422
6,GCAGCCAA,-0.103
7,CATGGGGC,-0.152
8,ATGAGTGA,-0.175
9,AGGTAAGC,-0.112
10,TCAACCCA,-0.105
11,TGTAGTAA,0.0142
12,AATTGAAA,-0.245
13,CATCATTC,-0.0643
14,ATGTGAAG,-0.0918
15,GATAATCA,-0.0752
16,CACTGAGG,-0.114
17,ATTCTGAC,0.00922
18,CCAGAATC,-0.0922
19,GCTCTAAC,-0.0925
20,GCCTCACA,-0.109
21,ATCGACCG,0.138
22,CGAGTTGC,0.0987
